Assay results: PubChem BioAssay AID1508624 (National Center for Advancing Translational Sciences (NCATS), 2021)
Screen size: about 48,000 compounds; about 120 (0.25%) were called active. Inconclusive results (about 4%) are left out. Calls come from the whole dose curve; as a rule, active = well fitted activation curve with a large enough effect; inconclusive = small, poorly fitted or top-dose-only effect, or another doubt; inactive = no such curve, though single readings can be large or run the other way. Some of the results follow.

Assay: Primary qHTS for Identification of Small Molecule Activators of Huntingtin-Antisense Promoter Activity; note: nearly all actives have a fitted effect of over 55% in size
Conditions: HEK293 HTT-AS promoter firefly luciferase reporter (activity 0% = vehicle and -100% = no light), 24 h; series mostly up to 57.5 µM; activity change, positive = activation: at the top concentration
How it was run: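 HEK293 luciferase promoter-reporter cells (2,500/well) plated 24 h, then compounds added at up to 57.5 uM final for 24 h at 37 °C. Firefly luminescence by Dual-Glo, normalized to vehicle (0%) and zero RLU (-100%).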

Activity change, positive = activation, inactive:
COc1ccc2c(c1)c1c(c(=O)n(-c3ccc(C)cc3)c(=O)n1CC(=O)Nc1cc(C)ccc1C)n2C -14.9%
CCC(C)NC(=O)C1CCN(S(=O)(=O)c2ccc3c(ccn3CC)c2)CC1 (centres undefined) -13.7%
COc1cccc2sc(N(Cc3cccnc3)C(=O)c3ccc(S(=O)(=O)N(C)C)cc3)nc12 -3.78%
O=C(O)c1ccccc1NC(=O)N1c2ccccc2Sc2ccccc21 -12.5%
CCOC(=O)C1CCCN(C(=O)C2CCN(S(=O)(=O)c3c(C)noc3/C=C/c3ccc(C)cc3)CC2)C1 (centres undefined) -28.4%
COc1ccccc1CNC(=O)c1cc2cc(S(=O)(=O)N3CCCCC3)ccc2n1C -31.8%
CC1CCCN(Cc2c(O)ccc3c(=O)c(-c4ccc(Cl)cc4)c(C(F)(F)F)oc23)C1 (centres undefined) -6.31%
COc1cc2c(cc1OC)C(c1cc(OC)c(O)c(OC)c1)CC(=O)N2 (centres undefined) 0.0744%
Cc1ccc(-c2c(C)n3c4c(=O)n(C)c(=O)n(C)c4nc3n2CCCO)cc1 -61.8%
O=C(CSc1nc2c([nH]c3ccccc32)c(=O)n1-c1ccccc1)Nc1ccccc1F -25.6%
O=C(CCn1cnnn1)Nc1ccccc1 -3.39%
COc1ccc(C(=O)Nc2cccc(-c3nc4cccnc4s3)c2C)c(OC)c1 -11.1%
CCOC(=O)c1ccccc1NC(=O)Cn1c(=O)n(Cc2ccc(C(=O)NCc3ccc4c(c3)OCO4)cc2)c(=O)c2ccccc21 -2.08%
CCOc1ccc(NC(=O)C2CCCN(S(=O)(=O)c3ccc(Br)s3)C2)cc1 (centres undefined) -9.24%
Cc1cccc(C(=O)NC(=O)Nc2ccc(-n3nc(C(F)(F)F)cc3C(F)(F)F)cc2)c1 -11.6%
COCCCNC(=O)C1CCN(c2ncnc3c2nc2n3CCCCC2)CC1 -8.68%
CCOc1cc(Br)c(C2C(C(=O)OC)=C(C)NC3=C2C(=O)c2ccccc23)cc1OCC (centres undefined) -23.4%
Cc1c2cnn(CC(=O)NCc3ccc(F)cc3)c(=O)c2c(C)n1Cc1ccccc1Cl -21.6%
COc1ccc(-c2nc(C)c(CCNC(=O)c3ccccc3Br)s2)cc1OC 7.76%
COc1cccc(Cn2cnc3c2c(=O)n(C)c(=O)n3C)c1 -51%
CC(=O)N1CCCc2cc(S(=O)(=O)N3CCC(N(C)C(C)C)CC3)ccc21 -4.57%
COC(=O)c1ccccc1NC(=O)N(Cc1ccc(C)cc1)Cc1cccn1-c1nnc(N2CCCC2=O)s1 -13.7%
CCOC(=O)c1[nH]c(C)c(CCC(=O)NCc2ccc(OC(C)C)cc2)c1C -31.1%
Cc1ccc(CNS(=O)(=O)c2c(C(=O)N3CCC(C)CC3)c(C)n(C)c2C)cc1 -10.4%
COc1ccc(C)cc1NC(=O)C1CCN(S(=O)(=O)c2cccc3nonc23)CC1 -19.5%
Cc1cc(Nc2cccc(O)c2)c2cccc(Br)c2n1 -4.51%
Cc1sc2ncn(CC(=O)Nc3ccc(C(F)(F)F)cc3)c(=O)c2c1S(=O)(=O)N1CCN(C)CC1 -19.6%
Cc1cccc(NC(=O)CSc2nnc3c4ccccc4n(C)c3n2)c1 -14%
CCc1ccc(S(=O)(=O)c2cn(CC(=O)Nc3cccc(C)c3)c3ccc(Cl)cc3c2=O)cc1 -5.61%
Cc1cc(C)cc(N2C(=O)CS(=O)(=O)C23C(=O)N(Cc2ccccc2)c2ccccc23)c1 (centres undefined) -28.9%
CC(C)(O)c1ccccc1CC[C@@H](SCC1(CC(=O)O)CC1)c1cccc(/C=C/c2ccc3ccc(Cl)cc3n2)c1 14%
Cc1cc(OCC(=O)Nc2ncn[nH]2)c(C)c(C)c1Br -1.13%
COc1nnc(-c2ccc(N3CCCCC3)c(NC(=O)c3ccc(Cl)cc3)c2)c2ccccc12 -26.4%
COc1ccc(-c2cc(C(F)(F)F)nc(SCC(=O)Nc3ccc(C(C)=O)cc3)n2)cc1 -41.6%
CCOC(=O)C1CCN(c2ncnc3c2c(-c2ccccc2)cn3-c2ccc(C)c(Cl)c2)CC1 -5.24%
CCc1cc(=O)[nH]c(SCc2nc(-c3ccccc3C)no2)n1 -18.3%
COc1ccc(OC)c(NC(=O)c2nc(SCc3ccc(F)cc3)ncc2Cl)c1 -10.3%
O=C1NC(=O)C(c2ccccc2)(c2ccccc2)N1 -14.7%
O=C(NCCc1csc(-c2ccc(F)cc2)n1)C(=O)Nc1ccc(Cl)cc1 4%
CCC(=O)N1c2ccc(S(=O)(=O)NCCc3ccccc3)cc2CC1C (centres undefined) -25.8%
O=C(/C=C/c1cn(CC(O)CN2CCc3ccccc32)c2ccccc12)c1ccc(Br)cc1 (centres undefined) -19.8%
Cc1cccc(-n2c(-c3ccco3)nc3c(cnn3-c3ccc(F)cc3)c2=O)c1 -39.1%
Cc1ccc(-n2cnc3cc(C(=O)NC4CCCCCC4)ccc32)cc1Cl -35.2%
COC(=O)c1c(C)sc(-c2c(-c3ccc4c(c3)OCCO4)[nH]c3c2c(=O)[nH]c(=O)n3C)c1O -27.4%
O=C(O)CO.[NH2-].[NH2-].[Pt+2] -6.56%
COc1ccc(-c2nn(C)c3sc(C(=O)N4CCN(c5cccc(Cl)c5)CC4)cc23)cc1OC -13.5%
COc1ccc(NC(=O)C2CCN(S(=O)(=O)c3c(C)noc3/C=C/c3ccc(C)cc3)CC2)cc1Cl -6.9%
Cc1c(CNCCCc2ccccc2)c(C(=O)O)c(C)n1Cc1cccc(Cl)c1 -18.1%
Cc1ccc(C)c(NC(=O)Nc2csc3c2CCCC3)c1 -17.6%
CC(C)NC(=O)C1CCN(C(=O)N2CC(C)Oc3ccccc32)CC1 (centres undefined) -2.61%
COc1ccccc1[C@H](c1cccc2ccccc12)[C@@](C)(C#N)C(=O)N1CCC(c2cccc(C(F)(F)F)c2)CC1 -11.3%
COc1ccccc1NC(=O)Cn1c(=O)n(Cc2nc(-c3ccccc3)no2)c(=O)c2ccccc21 -16%
CCC1=C(c2ccc(C)cc2)S(=O)(=O)N=C1N1CCC(C(=O)N2CCCCC2)CC1 -13.5%
CCS(=O)(=O)NCCc1csc2nc(-c3ccc(C)cc3)nn12 -16%
O=C(COCc1cc(-c2cccs2)on1)Nc1cccc(O)c1 -0.981%
COc1ccc(NC(=O)Cn2cc(C(=O)c3cccs3)c3ccccc32)cc1 -17.7%
CCN(Cc1ccccc1)S(=O)(=O)c1ccc2[nH]c3c(c2c1)CCCCC3 -33.1%
CN(Cc1ccccc1)c1ccc(-c2nc(-c3cccnc3)no2)cc1[N+](=O)[O-] -6.76%
CCOC(=O)c1cccc(NC(=O)c2nn(-c3ccc(OC)cc3)c(=O)c3c2c2ccccc2n3C)c1 -1.88%
Cc1c(C(=O)OCCOc2ccccc2)[nH]c2c1C(=O)CC(c1ccccc1Cl)C2 (centres undefined) -58.2%
CCC(C(=O)NCCc1cc(OC)ccc1OC)n1nc(C)c2sc3ccccc3c2c1=O (centres undefined) -39.4%
Cc1cc(-c2nc3ncccc3o2)ccc1NC(=O)COc1cc(C)c(Cl)c(C)c1 -18.1%
CN(C)c1ccc(CNC(=O)c2cccn2-c2nnc(N3CCCCC3)s2)cc1 -18.9%
CCOC(=O)c1cnc2nc(NCc3ccc(OCC)cc3)[nH]n2c1=O -6.31%
Cc1ccc(C)c(NC(=O)CSc2nc(-c3ccccc3Cl)nc3c2Cc2c(CO)cnc(C)c2O3)c1 -16.3%
CCCCOc1ccc(C(=O)NCCc2csc(-c3ccc(OC)cc3)n2)cc1 -39.8%
O=C(NCc1ccc(F)cc1)C(=O)NCC(c1cccs1)S(=O)(=O)c1cccs1 (centres undefined) -24.9%
COc1ccc(S(=O)(=O)c2cn(C)c3cc(N4CCOCC4)c(F)cc3c2=O)cc1 -12.4%
Cc1ccc(NS(=O)(=O)c2ccc3[nH]c4c(c3c2)CCCCC4)cc1 -32.4%
Cc1ccc(OCc2cc(=O)n3cc(C)sc3n2)c(C)c1 -4.99%
CC(=O)N1CCc2cc(S(=O)(=O)N3CCN(c4ccc(C)cc4)C(C)C3)ccc21 (centres undefined) -50.2%
CCc1ccc(OCC(=O)Nc2ccc3oc(-c4ccc(OC)cc4)nc3c2)cc1 17.7%
O=C(COc1ccccc1)Nc1c(Cl)ccc2nsnc12 -22.6%
COC(=O)CC1Oc2ccc(Cl)cc2-n2cc(-c3ccc(F)cc3)nc21 (centres undefined) -9.87%
CCCCCCCCCCCC(CC1OC(=O)C1CCCCCC)OC(=O)C(CC(C)C)NC=O (centres undefined) -15.5%
Cc1ccc(C)c(N(C)S(=O)(=O)c2ccc3[nH]cc(C(=O)NC4CCCC4)c(=O)c3c2)c1 -43.7%
CCOc1ccc(S(=O)(=O)NCC(c2cccs2)S(=O)(=O)c2ccc(C)cc2)cc1 (centres undefined) -9.56%
CCN1CCN(C(=O)c2c(C)nn(-c3ccc(F)cc3)c2-n2cccc2)CC1 12.4%
CC(=O)Oc1cccc(C)c1 0.423%
CC(C)Oc1ccc(CNC(=O)c2ccccc2NC(=O)c2nsc3ccccc23)cc1 -3.3%
CNS(=O)(=O)c1cn(CC(=O)N2CCN(c3cccc(Cl)c3)CC2)cc1S(=O)(=O)NC -11.2%
O=C(CCCCn1c(=O)c2ccccc2n(Cc2ccccc2F)c1=O)NCc1ccccc1Cl -6.51%
Cc1ccc(NC(=O)CSc2nc3ccc(NC(=O)CCc4ccccc4)cc3s2)c(C)c1 -6.83%
O=S(=O)(NCCc1nnc2ccc(SCc3c(F)cccc3Cl)nn12)c1ccccc1 -31.6%
COC(=O)c1ccc(CN(Cc2ccc(OC)c(OC)c2)S(=O)(=O)c2cc(C(=O)Nc3cccc(C)c3)ccc2F)cc1 -2.67%
CCCCC(C=O)NC(=O)C(CC(C)C)NC(=O)OCc1ccccc1 (centres undefined) -21.3%
Cc1oc(-c2ccccc2F)nc1CSCC(=O)NCCc1ccccc1 -22.8%
CCC(Oc1ccccc1)C(=O)Nc1ccc(OCc2cc(=O)n3ccc(C)cc3n2)cc1 (centres undefined) -6.98%
COc1ccccc1CNC(=O)c1ccc2c(c1)N(Cc1ccc(C)cc1)CCS2 -13.6%
CCc1ccccc1NC(=O)CN1C(=O)COc2ccc(S(=O)(=O)N3CCCCCC3)cc21 -8.98%
CCN(CC)S(=O)(=O)c1ccc2c(c1)N(CC(=O)NCC(C)c1ccccc1)C(=O)CO2 (centres undefined) -9.33%
CCn1cc(C(=O)N2CCN(c3ccccc3OC)CC2)c(=O)c2cc(S(=O)(=O)N3CCC(C)CC3)ccc21 -9.92%
Cc1ccc(-n2ncc3c(N4CCCCCC4)ncnc32)cc1C -84.6%
CC1=C(c2ccc(C)c(C)c2)S(=O)(=O)N=C1N1CCC(C(=O)N2CCCCC2)CC1 -19.9%
